# Experimental data from PubChem BioAssay AID686978 (National Center for Advancing Translational Sciences (NCATS), 2013).
# The campaign covered roughly 420,000 compounds. About 64,000 (15%) were called active. The shares of active, inactive and inconclusive entries below differ from those in the screen. Calls follow the shape of the dose curve; as a rule, active = well fitted inhibition curve with a large enough effect; inconclusive = small, poorly fitted or top-dose-only effect; inactive = flat fitted curve, though single readings scatter. Potencies of inconclusive entries are left out as doubtful fits.
# Test: qHTS for Inhibitors of human tyrosyl-DNA phosphodiesterase 1 (TDP1): qHTS in cells in absence of CPT; also: nearly all actives have a fitted effect of over 55% in size
# Details: DT40 Tdp1-/- hTDP1 cells, no CPT, ATP luminescence, 48 h; activity change, negative = growth inhibition: at 46.2 µM (top of the series) unless noted
# In short: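 Compound effects on proliferation are scored in DT40 Tdp1-/-;hTDP1 cells in the absence of CPT. ATP levels (CellTiter-Glo luminescence) are recorded after a ≥48 hr, 37 °C incubation.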
# % is scaled to controls: 0 for no effect and ±100 for the full control effect; potency is read from the fitted curve at half-maximal effect; tags tell the direction and shape of the fitted curve.
SMILES,Potency,"activity change, negative = growth inhibition"
O=C(CNS(=O)(=O)c1ccc(Cl)cc1)N1CCN(c2ccc(F)cc2)CC1,"inconclusive [inhibitor, single point]",–
CCOC(=O)C1(C)CCCCCN1C(=O)c1ccccc1F (centres undefined),inactive,–
CC(C)Nc1nnc(SCC(=O)Nc2sccc2C#N)s1,"inconclusive [inhibitor, partial curve]",–
COCCNc1c([N+](=O)[O-])c(=O)n(-c2ccccc2)c2ccccc12,"inconclusive [inhibitor, single point]",–
Cc1cc(O)c(C(=O)/C=C/c2ccc(C(C)C)cc2)c(=O)o1,"inconclusive [inhibitor, single point]",–
CC(C)(Oc1ccc(Cl)cc1)C(=O)N1CCN(c2ccccn2)CC1,–,inconclusive: -34.9% [inhibitor]
OC(COc1c(F)cc(Br)cc1F)CN1CCN(c2ccc(F)cc2)CC1 (centres undefined),active: 18.4 µM,–
Cc1nn(-c2ccc(F)cc2)c2sc(C(=O)N3CCCCCC3)cc12,"inconclusive [inhibitor, single point]",–
CN(C(=O)C1Cc2c(-c3ccc(Cl)cc3)ccnc2O1)c1ccccc1 (centres undefined),"inconclusive [inhibitor, single point]",–
Cc1cc(NC(=O)CS(=O)(=O)c2cn(Cc3cccc(C(F)(F)F)c3)c3ccccc23)no1,active: 20.6 µM,–
COc1ccccc1CCNC(=O)c1ccc2c(c1)c(C)c(C)n2Cc1ccc(Cl)cc1,active: 20.6 µM,–
O=C(NO)c1ccc(C(=O)N(C2CCCCC2)C2CCCCC2)cc1,active: 20.6 µM,–
COc1cccc(/C(C)=N/NS(=O)(=O)c2ccc(Cl)cc2)c1,inactive,–
CCCCCCSc1cc(-c2nc3ccc(C)cn3c2NCCCC)ccc1OC,"inconclusive [inhibitor, single point]",–
Cc1ccc(NC2=C/C(=N/S(=O)(=O)c3cccs3)c3ccccc3C2=O)cc1C,active: 7.31 µM,–
O=C(O)CSCC(=O)Nc1ccccc1SCCS(=O)(=O)c1ccc(Cl)cc1,inactive,–
COCCCNC(=O)Cn1c(=O)oc2cc(S(=O)(=O)N3CC(C)CC(C)C3)ccc21 (centres undefined),inactive,–
Cc1cc(Cl)c2oc(C(=O)NC(C)c3ccncn3)c(C)c2c1 (centres undefined),"inconclusive [inhibitor, single point]",–
C=CCn1c2ccccc2c2n[nH]c(=S)nc21,"inconclusive [inhibitor, single point]",–
COc1ccc(-n2c(Cc3cccn3C)nnc2SCC(=O)Nc2ccc3c(c2)OCO3)cc1,inactive,–
COc1ccc(S(=O)(=O)N2CCN(CC(=O)NC3CC3)CC2)cc1,inactive,–
Cc1c(C(=O)O)cnc2c([N+](=O)[O-])cnn12,active: 18.4 µM,–

SMILES,Potency,"activity change, negative = growth inhibition"
Cc1ccc2c(c1)-c1nc(-c3ccc4c(c3)NC(=O)CO4)cc(-c3ccc(F)cc3)c1CO2,active: 4.61 µM,–
CN(CCCNC(=O)CSc1cc(=O)n(C)c2cc(Cl)ccc12)Cc1ccccc1,inactive,–
COC(=O)c1cc(NC(=O)CC2SC(=Nc3ccccc3)N(CCc3c[nH]c4ccccc34)C2=O)cc(C(=O)OC)c1 (centres undefined),"inconclusive [inhibitor, single point]",–
COc1cccc(/C=N/Nc2nc3ccccc3n3cnnc23)c1,"inconclusive [inhibitor, single point]",–
Cc1nc(SCC(=O)OCc2ccccc2)c2c(=O)n(C)c(=O)n(C)c2n1,"inconclusive [inhibitor, partial curve]",–
Cc1cc(NC(=O)c2cc3n(n2)C(C(F)(F)F)CC(c2ccc(Cl)c(Cl)c2)N3)no1 (centres undefined),active: 20.6 µM,–
Cn1nc(C(C)(C)C)c([N+](=O)[O-])c1C(N)=O,inactive,–
C[C@H](NC(=O)c1nc[nH]c1C(=O)N[C@@H](C)c1ccccc1)c1ccccc1,"inconclusive [inhibitor, single point]",–
CCc1nc2c(OCCOc3ccccc3)cccn2c1N(C)C(=O)c1ccccc1F,"inconclusive [inhibitor, single point]",–
CCOC(=O)c1cnn2c(C(F)(F)F)cc(-c3cn(C)nc3C)nc12,"inconclusive [inhibitor, single point]",–
CN1CCN(C2Cc3cc(Cl)ccc3Sc3cc(F)ccc32)CC1 (centres undefined),"inconclusive [inhibitor, single point]",–
CC(=O)OCC(=O)Nc1ccc(N=Nc2ccccc2)cc1,"inconclusive [inhibitor, single point]",–
COc1ccc(CCNC(=O)c2nn(C)c3c2CS(=O)(=O)c2ccccc2-3)cc1OC,"inconclusive [inhibitor, single point]",–
CCN(CC)CCNC(=O)c1cc(-c2cccnc2)nc2ccc(S(=O)(=O)N3CCC(C)CC3)cc12,"inconclusive [inhibitor, single point]",–
CC(NC(=O)c1ccccc1NC(=O)CN1CCc2ccccc2C1)c1ccccc1 (centres undefined),"inconclusive [inhibitor, single point]",–
Cc1nc2c(C(=O)NCCc3ccc(Cl)cc3)c[nH]n2c(=O)c1Cc1ccc(Cl)cc1,"inconclusive [inhibitor, single point]",–
COc1ccccc1C(=O)Nc1c(C(=O)N(C)Cc2ccccc2)sc2nc(C)c(Cl)c(C)c12,"inconclusive [inhibitor, single point]",–
CCN(CC)C(=O)c1ccc2nc([C@@H]3O[C@H](CO)[C@H](O)[C@H](O)[C@H]3O)[nH]c2c1,inactive,–
O=C(CSc1nnc(-c2ccc(O)cc2)o1)c1ccc(Br)cc1,"inconclusive [inhibitor, partial curve]",–
COc1ccccc1NC(=O)c1ccc(-n2ccnc2)c([N+](=O)[O-])c1,inactive,–
COc1ccc(OC)c(-c2csc(-c3c(N)c(C(=O)c4ccccc4)n4ccccc34)n2)c1,"inconclusive [inhibitor, single point]",–
NNC(=O)c1ccc(C(=O)N(c2ccccc2)c2ccccc2)cc1,"inconclusive [inhibitor, partial curve]",–
